# Source: PubChem BioAssay (Tox21)
# Values joined by “and” are separate entries in the source; they are usually repeats but may differ in a detail not shown here. Identical values can stand only once. Inconclusive means that the source gave no clear call. Such entries were picked first, then a sample of the others. For part of these data: Potencies of inconclusive entries are doubtful fits and often do not repeat. Active and inactive are the calls of the source. Unless noted, calls follow the shape of the dose curve; as a rule, active = well fitted curve in the direction sought with a large enough effect in the repeat runs; inconclusive = weak or mixed curves; inactive = no such curve, though single readings can be large; an effect the other way counts as inactive or inconclusive.
# What was measured:
# [1] = qHTS assay to identify small molecule agonists of the NFkB signaling pathway - cell viability counter screen (AID 1159515; calls by dose curve; also: nearly all actives have a fitted effect of over 55% in size)
# Procedure, shortened: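 Viability in NFkB-bla ME-180 cells was measured by CellTiter-Glo luminescence, 30 min room temperature, in wells already treated 5 hr with compounds and read for reporter FRET.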
# [2] = target: Peroxisome proliferator-activated receptor gamma (Homo sapiens) (UniProt P37231); assay: qHTS assay to identify small molecule antagonists of the peroxisome proliferator-activated receptor gamma (PPARg) signaling pathway (AID 743191; calls by dose curve; also: nearly all actives have a fitted effect of over 30% in size; as to ratio activity, negative = inhibition: % is scaled to controls: 0 for no effect and ±100 for the full control effect); conditions: HEK293H PPARg-UAS-bla, beta-lactamase ratio, antagonist, 17 h; ratio activity, negative = inhibition: at 62.6 µM (top of the series) unless noted
# Procedure, shortened: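 GeneBLAzer PPARg UAS-bla HEK293H cells carrying a UAS-driven beta-lactamase reporter were plated at 3000 cells/well, preincubated 5 h at 37C, then given compound for 17 h at 37C; LiveBLAzer B/G FRET substrate was read after 1 h at room temperature.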
# [3] = qHTS assay to identify small molecule antagonists of the peroxisome proliferator-activated receptor gamma (PPARg) signaling pathway - cell viability counter screen (AID 743194); conditions: PPARg-bla HEK293H viability, CellTiter-Glo luminescence, 17 h; Potency: co-treated with 50 nM rosiglitazone unless noted; activity change, negative = cytotoxicity: at 62.6 µM (top of the series), co-treated with 50 nM rosiglitazone unless noted; also: nearly all actives have a fitted effect of over 55% in size; as to activity change, negative = cytotoxicity: % is scaled to controls: 0 for no effect and ±100 for the full control effect
# Procedure, shortened: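 PPARg-UAS-bla HEK293H cells were plated, rested 5 h at 37 C, then treated with compounds plus rosiglitazone (50 nM final) for 17 h at 37 C; viability was then read by CellTiter-Glo luminescence after 30 min at room temperature.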
# [4] = qHTS assay for small molecule agonists of the antioxidant response element (ARE) signaling pathway - cell viability counter screen (AID 743203; calls by dose curve; also: nearly all actives have a fitted effect of over 55% in size)
# Procedure, shortened: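 Cells (ARE-bla HepG2, 2,000/well) receive DMSO-dissolved compounds after a 5 hrs rest. Plates incubate 16 hrs at 37C/5% CO2. CellTiter-Glo luminescence is then recorded after 30 min at room temperature.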
# [5] = qHTS assay for small molecule activators of the heat shock response signaling pathway - cell viability counter screen (AID 743209); conditions: HSE-bla HeLa viability, CellTiter-Glo luminescence, 5 h; activity change, negative = cytotoxicity: at 62.6 µM (top of the series) unless noted; also: nearly all actives have a fitted effect of over 50% in size
# Procedure, shortened: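 Quantitative HTS format, Tox21 10K library. HeLa cells carrying an HSE-driven beta-lactamase reporter were treated 5 h at 37 C, then assessed for viability by CellTiter-Glo luminescence.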
# [6] = qHTS assay to identify small molecule agonists of the peroxisome proliferator-activated receptor delta (PPARd) signaling pathway - cell viability counter screen (AID 743211); conditions: PPARd-bla HEK293H viability, CellTiter-Glo luminescence, 17 h; activity change, negative = cytotoxicity: at 62.6 µM (top of the series) unless noted; also: nearly all actives have a fitted effect of over 55% in size
# Procedure, shortened: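 Counter screen for cytotoxicity run in parallel with the PPARd reporter screen. Beta-lactamase reporter HEK293H cells exposed to compounds 17 h; ATP-based CellTiter-Glo luminescence quantified viability.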
# [7] = qHTS assay to identify small molecule antagonists of the peroxisome proliferator-activated receptor delta (PPARd) signaling pathway - cell viability counter screen (AID 743213); conditions: PPARd-bla HEK293H viability, CellTiter-Glo luminescence, 17 h; viability change, negative = cytotoxic: at 62 µM (top of the series) unless noted; also: nearly all actives have a fitted effect of over 50% in size
# Procedure, shortened: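 Luminescence from CellTiter-Glo, added after the bla read and incubated 30 min at room temperature, gives viability of HEK293H PPARd-bla cells exposed to compounds for 17 h at 37 C with 300 nM L165041.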
# [8] = qHTS assay to identify small molecule agonists of the farnesoid-X-receptor (FXR) signaling pathway - cell viability counter screen (AID 743218); conditions: FXR-bla HEK293T viability, CellTiter-Glo luminescence, 16 h; viability change, negative = cytotoxic: at 62.6 µM (top of the series) unless noted; also: nearly all actives have a fitted effect of over 45% in size
# Procedure, shortened: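 In GeneBLAzer FXR-UAS-bla HEK 293T cells, compounds act for 16 h at 37 C. Cell viability is then scored in the reporter wells by CellTiter-Glo, 30 min at RT, luminescence.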
# [9] = qHTS assay to identify small molecule antagonists of the farnesoid-X-receptor (FXR) signaling pathway - cell viability counter screen (AID 743221; active = well fitted cell-killing curve with a large enough effect in the repeat runs, not every such curve was filed as active; inconclusive = weak or mixed curves, or effect the other way; inactive = no such curve, though single readings can be large or run the other way; also: nearly all actives have a fitted effect of over 50% in size); conditions: FXR-bla HEK293T viability, CellTiter-Glo luminescence, 16 h; activity change, negative = cytotoxicity: at 62.6 µM (top of the series) unless noted
# Procedure, shortened: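 Multiplexed counter screen: viability of FXR-bla HEK 293T cells under agonist stimulation by chenodeoxycholic acid (50 uM, final) and test compound for 16 h at 37 C, measured by CellTiter-Glo luminescence in the reporter wells.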
# [10] = target: Vitamin D3 receptor (Homo sapiens) (UniProt P11473); assay: qHTS assay to identify small molecule agonists of the vitamin D receptor (VDR) signaling pathway (AID 743222; calls by dose curve); conditions: HEK293T VDR-UAS-bla, beta-lactamase FRET ratio, 16 h; activation: at 63.5 µM (top of the series) unless noted
# Procedure, shortened: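 Agonist activity measured in VDR-bla reporter cells. Exposure 16 h, 37C, 5% CO2; detection by B/G FRET substrate, 2 h RT.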
# [11] = target: Vitamin D3 receptor (Homo sapiens) (UniProt P11473); assay: qHTS assay to identify small molecule antagonists of the vitamin D receptor (VDR) signaling pathway (AID 743223; active = well fitted inhibition curve with a large enough effect in the signal ratio in the repeat runs, not every such curve was filed as active; inconclusive = weak or mixed curves, or effect the other way; inactive = no such curve, though single readings can be large or run the other way; the % refers to the signal ratio; as to activity change, negative = inhibition: % is scaled to controls: 0 for no effect and ±100 for the full control effect); conditions: VDR-UAS-bla HEK293T, beta-lactamase FRET ratio, 16 h; activity change, negative = inhibition: at 61 µM (top of the series) unless noted
# Procedure, shortened: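 Cells carrying a VDR-driven beta-lactamase reporter (VDR-bla) were co-treated with compound and 3 nM final 1alpha,25-dihydroxyvitamin D3 for 16 h at 37C; reporter activity was measured as FRET substrate fluorescence after 2 h at room temperature.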
# [12] = qHTS assay to identify small molecule agonists of the vitamin D receptor (VDR) signaling pathway - cell viability counter screen (AID 743224); also: nearly all actives have a fitted effect of over 50% in size
# Procedure, shortened: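 VDR-bla cell line, quantitative HTS format; 16 h compound incubation (37C, 5% CO2); ATP-based CellTiter-Glo luminescence measured in the reporter assay wells.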
# [13] = qHTS assay to identify small molecule antagonists of the vitamin D receptor (VDR) signaling pathway - cell viability counter screen (AID 743225); conditions: VDR-bla HEK293T viability, CellTiter-Glo luminescence, 16 h; viability change, negative = cytotoxic: at 61 µM (top of the series) unless noted; also: nearly all actives have a fitted effect of over 50% in size
# Procedure, shortened: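 HEK293T VDR-bla; cpd + 1a,25-(OH)2D3 3 nM final, 16 h 37C/5% CO2; B/G FRET substrate 2 h RT; then CellTiter-Glo 30 min RT, luminescence.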
# [14] = qHTS assay to identify small molecule agonists of the endoplasmic reticulum stress response signaling pathway (AID 1159516; active = well fitted activation curve with a large enough effect in the signal ratio in the repeat runs, not every such curve was filed as active; inconclusive = weak or mixed curves, or effect the other way; the % refers to the signal ratio); conditions: ESRE-bla HeLa, ER stress beta-lactamase reporter, 5 h; activation: at 61 µM (top of the series) unless noted
# Procedure, shortened: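 ER stress element reporter (bla) in HeLa. 1,500 cells/well, overnight attachment; 5 hr compound; 2 hr RT substrate; dual-emission fluorescence.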
# [15] = qHTS assay for small molecule agonists of the antioxidant response element (ARE) signaling pathway (AID 743202; active = well fitted activation curve with a large enough effect in the signal ratio in the repeat runs, not every such curve was filed as active; inconclusive = weak or mixed curves, or effect the other way; inactive = no such curve, though single readings can be large or run the other way; the % refers to the signal ratio); conditions: HepG2 ARE-bla reporter, beta-lactamase FRET, 16 h; activation: at 73.3 µM (top of the series) unless noted
# Procedure, shortened: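 Read-out: LiveBLAzer B/G FRET substrate fluorescence after 2 h at room temperature, following 16 h compound treatment at 37 C of HepG2 cells carrying an ARE-driven beta-lactamase reporter.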
# [16] = target: Peroxisome proliferator-activated receptor delta (Homo sapiens) (UniProt Q03181); assay: qHTS assay to identify small molecule agonists of the peroxisome proliferator-activated receptor delta (PPARd) signaling pathway (AID 743212; calls by dose curve; as to activation: % is scaled to controls: 0 for no effect and ±100 for the full control effect); conditions: HEK293H PPARd-UAS-bla, beta-lactamase FRET ratio, 17 h; activation: at 62.6 µM (top of the series) unless noted
# Procedure, shortened: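 GeneBLAzer PPARd UAS-bla HEK293H cells (beta-lactamase reporter under UAS control), plated and rested 5 h at 37 C, then exposed to compounds in DMSO at 37 C; LiveBLAzer B/G FRET substrate added, 2 h room temperature, fluorescence read.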
# [17] = target: Peroxisome proliferator-activated receptor delta (Homo sapiens) (UniProt Q03181); assay: qHTS assay to identify small molecule antagonists of the peroxisome proliferator-activated receptor delta (PPARd) signaling pathway (AID 743215; active = well fitted inhibition curve with a large enough effect in the signal ratio in the repeat runs, not every such curve was filed as active; inconclusive = weak or mixed curves, or effect the other way; inactive = no such curve, though single readings can be large or run the other way; the % refers to the signal ratio;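 also: cells stimulated with agonist L165041 at 300 nM final during compound exposure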); conditions: HEK293H PPARd-UAS-bla, beta-lactamase FRET ratio, antagonist, 17 h; ratio activity, negative = inhibition: at 62 µM (top of the series) unless noted
# Procedure, shortened: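 Antagonist-mode beta-lactamase reporter screen: HEK293H cells with UAS-bla under PPARd control, stimulated by 300 nM L165041 (final) alongside test compound for 17 h at 37 C, then FRET fluorescence after 2 h substrate incubation.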
# [18] = qHTS assay for small molecule activators of the heat shock response signaling pathway (AID 743210; active = well fitted activation curve with a large enough effect in the signal ratio in the repeat runs, with a control signal flat, not every such curve was filed as active; inconclusive = weak or mixed curves; the % refers to the signal ratio); conditions: HeLa HSE-bla reporter, beta-lactamase ratio, 5 h; activation: at 62.6 µM (top of the series)
# Procedure, shortened: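 HSE-bla HeLa cells (beta-lactamase reporter under heat shock response elements) were exposed to compounds for 5 h at 37 C, then loaded with LiveBLAzer B/G FRET substrate for 2.5 h at room temperature before fluorescence reading.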
# Potency is read from the fitted curve at half-maximal effect; tags tell the direction and shape of the fitted curve or compound fluorescence and quenching.
# UniProt P11473, sequence (P11473 whole entry, looked up): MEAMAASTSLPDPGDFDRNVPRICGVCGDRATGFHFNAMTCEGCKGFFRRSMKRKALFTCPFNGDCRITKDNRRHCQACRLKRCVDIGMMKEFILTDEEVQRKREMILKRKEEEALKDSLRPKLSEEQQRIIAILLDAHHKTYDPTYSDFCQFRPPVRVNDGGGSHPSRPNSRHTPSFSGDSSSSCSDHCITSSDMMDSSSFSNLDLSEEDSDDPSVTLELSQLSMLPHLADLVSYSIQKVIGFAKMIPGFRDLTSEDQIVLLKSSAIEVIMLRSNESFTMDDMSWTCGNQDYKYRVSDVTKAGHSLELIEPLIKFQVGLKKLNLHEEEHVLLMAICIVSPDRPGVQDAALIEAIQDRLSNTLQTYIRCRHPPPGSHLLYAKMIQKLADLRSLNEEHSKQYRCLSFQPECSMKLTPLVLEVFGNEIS
# UniProt P37231, sequence (P37231 whole entry, looked up): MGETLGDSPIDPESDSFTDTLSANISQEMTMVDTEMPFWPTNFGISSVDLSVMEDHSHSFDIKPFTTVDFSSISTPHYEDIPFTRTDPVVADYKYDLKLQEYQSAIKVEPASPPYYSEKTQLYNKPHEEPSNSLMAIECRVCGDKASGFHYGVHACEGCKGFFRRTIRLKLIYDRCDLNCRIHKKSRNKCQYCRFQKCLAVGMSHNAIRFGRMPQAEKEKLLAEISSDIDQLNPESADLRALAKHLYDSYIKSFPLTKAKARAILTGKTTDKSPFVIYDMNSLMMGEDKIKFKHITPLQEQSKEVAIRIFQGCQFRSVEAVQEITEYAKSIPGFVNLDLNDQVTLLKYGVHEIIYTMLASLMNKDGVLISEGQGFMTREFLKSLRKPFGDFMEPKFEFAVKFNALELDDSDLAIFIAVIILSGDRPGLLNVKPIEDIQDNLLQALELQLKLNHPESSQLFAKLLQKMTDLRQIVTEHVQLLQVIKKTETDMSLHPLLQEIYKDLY
# UniProt Q03181, sequence (Q03181 whole entry, looked up): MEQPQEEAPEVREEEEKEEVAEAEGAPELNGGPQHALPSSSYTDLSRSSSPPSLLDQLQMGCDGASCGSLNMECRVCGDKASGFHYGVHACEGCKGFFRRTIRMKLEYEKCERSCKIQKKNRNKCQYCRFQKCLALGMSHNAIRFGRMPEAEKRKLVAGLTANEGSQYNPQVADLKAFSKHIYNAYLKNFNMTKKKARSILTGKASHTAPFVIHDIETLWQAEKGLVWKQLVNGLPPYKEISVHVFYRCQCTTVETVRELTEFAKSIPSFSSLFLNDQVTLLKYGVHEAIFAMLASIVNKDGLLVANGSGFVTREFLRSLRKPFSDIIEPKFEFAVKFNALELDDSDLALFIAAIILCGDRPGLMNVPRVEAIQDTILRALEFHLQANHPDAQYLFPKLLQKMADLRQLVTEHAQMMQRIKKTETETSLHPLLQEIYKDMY
compound,measurement,setting,value
c1ccc2c(c1)CCNC2,Potency,[1],inactive
O=S(=O)(O)C(F)(F)C(F)(F)C(F)(F)C(F)(F)C(F)(F)C(F)(F)C(F)(F)C(F)(F)F,Potency,[2],inconclusive: 61.1 µM [inhibitor]
same,Potency,[3],"inconclusive: 0.49 µM [rising, full curve, poor fit]"
same,Potency,[4],"inconclusive: 65.3 µM [cytotoxic, single point] and inconclusive: 77 µM [cytotoxic, single point]"
same,Potency,[5],inconclusive: 40.3 µM [cytotoxic]
same,Potency,[6],"inconclusive: 46.6 µM [cytotoxic, partial curve] and inconclusive: 347 nM [cytotoxic, full curve, poor fit]"
same,Potency,[7],active: 26.2 µM and inconclusive: 12.3 µM [cytotoxic] and active: 43.6 µM
same,Potency,[8],active: 52.3 µM and active: 49 µM and active: 33.6 µM
same,Potency,[9],active: 41.6 µM and active: 13.8 µM and active: 6.16 µM
same,Potency,[10],"inconclusive: 12.3 µM [fluorescent, partial curve]"
same,Potency,[11],inconclusive: 54.9 µM [activator]
same,"activity change, negative = inhibition",[11],inconclusive: 1.05%
same,Potency,[12],"inconclusive: 37 µM [cytotoxic, partial curve] and inconclusive: 3.89 µM [cytotoxic, full curve] and inconclusive: 19.3 µM [cytotoxic, full curve]"
same,Potency,[13],"inconclusive: 10.4 µM [cytotoxic, partial curve, poor fit] and inconclusive: 12.3 µM [cytotoxic, single point] and inconclusive: 11 µM [cytotoxic, full curve]"
same,Potency,[1],"inconclusive: 34.7 µM [cytotoxic, partial curve, poor fit]"
same,Potency,[14],inconclusive: 54.9 µM [single point]
O=C(CBr)Nc1ccc(Cl)cc1C(=O)c1ccccc1F,Potency,[2],inactive
same,Potency,[3],inactive
same,Potency,[15],active: 23.7 µM
same,Potency,[6],"inconclusive: 6.68 µM [rising, full curve]"
same,Potency,[16],inactive
same,"ratio activity, negative = inhibition",[17],inconclusive: 3.08%
same,Potency,[1],"inconclusive: 26.8 µM [cytotoxic, partial curve, poor fit]"
same,Potency,[14],"inconclusive: 30.1 µM [falling, single point]"
OC[P+](CO)(CO)CO,Potency,[2],"inconclusive: 14 µM [activator, full curve, poor fit] and inconclusive: 5.49 µM [activator]"
same,Potency,[3],"inconclusive: 1.1 µM [rising, single point]"
same,Potency,[15],active: 12.3 µM and active: 8.63 µM
same,Potency,[5],"inconclusive: 55.6 µM [cytotoxic, single point]"
same,Potency,[18],inconclusive: 53.5 µM and inactive
same,Potency,[16],inconclusive: 55.6 µM
same,Potency,[7],"inconclusive: 62.4 µM [cytotoxic, single point]"
same,Potency,[17],"inconclusive: 62.4 µM [rising, single point]"
same,Potency,[8],"inconclusive: 49.5 µM [cytotoxic, single point]"
same,Potency,[9],"inconclusive: 62.4 µM [falling, single point]"
same,Potency,[1],"inconclusive: 62.4 µM [cytotoxic, single point]"
same,Potency,[14],active: 1.57 µM and inconclusive: 4.36 µM
